Sequences and labels used below:
T1: UNK ZnF1-3 (human, UniProt Q9C0B0 31-174)
T1 sequence: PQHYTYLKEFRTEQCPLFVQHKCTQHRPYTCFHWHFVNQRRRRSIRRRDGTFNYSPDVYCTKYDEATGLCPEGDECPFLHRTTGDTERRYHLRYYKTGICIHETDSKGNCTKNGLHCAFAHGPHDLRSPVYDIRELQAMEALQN

B1: chr8:117878989:117878990:-_ENSG00000164754_ENST00000297338|hu_hu|hu_hu_hu_mus_True|8_68 (ssRNA)
RNA: GGGAGUUCUACAGUCCGACGAUCCCAGAGGCCCUCGUUUACUGAGGACAAAAUGUGCGUAGAACAUUGUUCUGGCUUGCUAUGAAAUAAGAAGAAACCUGGAUCUCGGCGGGGAGCCGGGAGGGGUUGGGUGGCCCGGGAGGGCAACAGAGGAUUGAGCAUCA
B2: 10871457_10871577_264_CDS_ENSMUSG00000090112_ENSMUST00000044053|mouse|control|control (ssRNA)
RNA: GGGAGUUCUACAGUCCGACGAUCACAGGCCUGUUCCCCGACCGUCAUGGUGAGCGGCUCACUCCUCAGGUCCUCAUGCAUGUUCCAGUGAAGCUGCUGUUGCCUUUCUUCAUCGACCUUCAUCGGGGGAGCACGUUUCCUUCGCAACAGAGGAUUGAGCAUCA
B3: chr4:123032474:123032475:-_ENSMUSG00000028649_ENSMUST00000154824|mus_mus|FALSE|FALSE (ssRNA)
RNA: GGGAGUUCUACAGUCCGACGAUCUGACCGGAAUGGAGUCAUCCCCUGAGAUGCCCCUUCUGGCAGGAUGAAUUUCUCUCUAAGUUCUAUGUUAGUUCUGCCUCGUGCUCGGCAGGGGUCAUUUUUCACUAGAAACUCGUCCAGCAACAGAGGAUUGAGCAUCA
B4: chr1:46159212:46159213:+_ENSG00000159596_ENST00000372025|hu_mus|hu_hu_hu_mus_True|1_98 (ssRNA)
RNA: GGGAGUUCUACAGUCCGACGAUCUCUGAUCCCUCCCAAGAAAGAUAGGAAACCGGCUCCAUAAGCCAUCUGAGUGAAAGCUAGGACGGGGAUAUAAGACUUUGUUAUUACCAUGAGAAGUGGGGGAGCAGUAAAGGGGAUUAGCAACAGAGGAUUGAGCAUCA
B5: 37430299_37430419_11376_3pUTR_ENSMUSG00000026915_ENSMUST00000028279|mouse|control|control (ssRNA)
RNA: GGGAGUUCUACAGUCCGACGAUCGCAGCUCAUAGCUUCAGCAUAUGCUAUCACAUCCCACAGUACACUUCUUACCUUCUGUUCUUCCAAAGCACCUCACCUGCCCUCAUGUGGCACCUUCACAUCAAAAUGCCCACUUGUCUACAACAGAGGAUUGAGCAUCA
B6: chr4:144460044:144460045:+_ENSG00000153147_ENST00000283131|hu_mus|hu_hu_hu_mus_False|1_18 (ssRNA)
RNA: GGGAGUUCUACAGUCCGACGAUCACGGUCCAUAGCCUGAAGAUCAACUUGCGGAUUCCAAUCUGAGUCAUAUAAAAUGACUACAUCAGCAGUUGCAAGAUUGAUGCCCAGACCACCAGCACGCGUGCUUAGCAUAAAAACAAACAACAGAGGAUUGAGCAUCA

The list shows a part of the results.

The target in the assay is T1, UNK ZnF1-3. The experiment in a line: nsRBNS (natural sequence RNA bind-n-seq); RBNS binding buffer (assumed for nsRBNS): 25 mM Tris pH 7.5, 150 mM KCl, 3 mM MgCl2, 0.01% Triton X-100, 500 ug/ml BSA, 20 U/ml SUPERase-In, 4 C; UNK is unkempt and MSI1 is Musashi-1; names of the RNAs are library labels; protein concentration not given here; high values mean tight binding.
The molecule B1 registered a binding signal of 1.48 enrichment R.
With B2 the figure was 0.524 enrichment R.
With B3 the figure was 0.607 enrichment R; with B4, 1.6 enrichment R; with B5, 1.13 enrichment R.
B6 registered a binding signal of 1.01 enrichment R.

The values above are taken from PMC12136788.
